The campaign covered roughly 350,000 compounds. About 31,000 (8.9%) were called active. This list was built around the results that the source calls inconclusive (neither active nor inactive); the mix of calls is not that of the screen. Calls come from the whole dose curve; as a rule, active = well fitted inhibition curve with a large enough effect; inconclusive = small, poorly fitted or top-dose-only effect; inactive = no such curve, though single readings can be large or run the other way. A potency beside an inconclusive call is a rough fit, not a confirmed value.
target: Histone-lysine N-methyltransferase EHMT2 (Homo sapiens) (UniProt Q96KQ7); test: qHTS Assay for Inhibitors of Histone Lysine Methyltransferase G9a; conditions: G9a H3K9 monomethylation, AlphaScreen, 2 h; activity, negative = inhibition: at 59 µM (top of the series) unless noted; note: nearly all actives have a fitted effect of over 75% in size
Summary of the method: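 Step 1: enzyme (final 20 nM) with compound, 15 min RT. Step 2: substrate peptide 500 nM and SAM 20 uM, 2 h RT. Step 3: anti-H3K9me1 antibody and AlphaScreen beads, 10 min, then plate read.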
% is set by controls: 0 for no effect and ±100 for the full control effect; potency is the fitted concentration of half-maximal effect; tags give direction and shape of the fitted curve.

UniProt Q96KQ7, sequence (Q96KQ7 whole entry, looked up): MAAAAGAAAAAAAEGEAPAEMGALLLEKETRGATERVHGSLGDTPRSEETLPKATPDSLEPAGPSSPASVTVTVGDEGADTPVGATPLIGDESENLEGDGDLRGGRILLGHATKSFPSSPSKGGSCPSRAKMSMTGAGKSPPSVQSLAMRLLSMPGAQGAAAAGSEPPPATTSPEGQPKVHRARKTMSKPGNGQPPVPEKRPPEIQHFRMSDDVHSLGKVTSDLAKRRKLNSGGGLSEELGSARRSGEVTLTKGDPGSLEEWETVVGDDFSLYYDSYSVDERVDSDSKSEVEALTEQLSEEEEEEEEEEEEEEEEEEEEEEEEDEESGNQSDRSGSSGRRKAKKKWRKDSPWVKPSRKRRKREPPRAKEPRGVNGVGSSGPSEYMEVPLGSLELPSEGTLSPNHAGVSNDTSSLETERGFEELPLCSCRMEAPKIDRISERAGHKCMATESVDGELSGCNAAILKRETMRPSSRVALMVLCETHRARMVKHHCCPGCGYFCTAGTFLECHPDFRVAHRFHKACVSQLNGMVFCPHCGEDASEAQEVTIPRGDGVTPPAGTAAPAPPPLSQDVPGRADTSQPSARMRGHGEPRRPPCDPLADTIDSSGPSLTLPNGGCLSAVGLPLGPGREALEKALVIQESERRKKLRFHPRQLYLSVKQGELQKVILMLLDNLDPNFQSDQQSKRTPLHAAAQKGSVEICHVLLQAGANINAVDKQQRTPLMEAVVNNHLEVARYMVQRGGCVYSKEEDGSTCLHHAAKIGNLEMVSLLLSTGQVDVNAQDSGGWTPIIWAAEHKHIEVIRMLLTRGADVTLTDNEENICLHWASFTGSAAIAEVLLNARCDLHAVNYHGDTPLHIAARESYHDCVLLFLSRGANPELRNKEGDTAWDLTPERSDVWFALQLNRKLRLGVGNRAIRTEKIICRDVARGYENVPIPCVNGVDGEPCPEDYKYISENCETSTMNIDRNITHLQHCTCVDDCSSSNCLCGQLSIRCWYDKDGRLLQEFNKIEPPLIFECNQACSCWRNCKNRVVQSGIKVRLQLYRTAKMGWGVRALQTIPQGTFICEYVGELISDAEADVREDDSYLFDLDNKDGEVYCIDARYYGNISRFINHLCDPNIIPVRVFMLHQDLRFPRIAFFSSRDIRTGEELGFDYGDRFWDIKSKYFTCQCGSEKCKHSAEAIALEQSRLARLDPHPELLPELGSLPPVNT

**Q.** `Cc1ccc(-c2nc(S(=O)(=O)c3ccc(C)cc3)c(SCC(=O)c3ccccc3)o2)cc1` was tested. Which Potency did it give?
**A.** inconclusive: 8.91 µM [inhibitor, partial curve, poor fit]

**Q.** For `Cc1cc(Nc2ccc3c(c2)OCCO3)c2ccccc2n1`, which Potency is on record?
**A.** inconclusive: 3.55 µM [inhibitor, full curve]

**Q.** Which Potency does the source give for `O=C(c1csc2c1CCCC2)N1CCN(c2ccccc2)CC1` here?
**A.** inconclusive: 89.1 µM [inhibitor, single point]

**Q.** Which Potency does the source give for `O=C(c1cc(-c2ccc(Cl)cc2)on1)N1CCCCCC1` here?
**A.** inactive

**Q.** Which Potency does the source give for `CNC(=S)N1CCn2cccc2C1c1cc(OC)c(OC)c(OC)c1` (stereo not drawn) here?
**A.** inconclusive: 31.6 µM [inhibitor, full curve, poor fit]

**Q.** Which Potency does the source give for `CC(=O)c1ccc(NC(=O)CN2C(=O)CCc3cc(S(=O)(=O)N4CCC(C)CC4)ccc32)cc1` here?
**A.** inactive

**Q.** For `COc1cccc(NC(=O)CCc2nnc3n(CC(C)C)c(=O)c4ccccc4n23)c1`, which Potency is on record?
**A.** inconclusive: 8.91 µM [inhibitor, single point]

**Q.** `O=C(/C=C/c1ccccc1)Nc1nc(-c2cccs2)ns1` was tested. Which Potency did it give?
**A.** inactive

**Q.** Which Potency does the source give for `Cc1nn(-c2ccccc2)c(C)c1NC(=O)COc1ccc2ccccc2c1` here?
**A.** inconclusive: 14.1 µM [inhibitor, partial curve, poor fit]

**Q.** Which Potency does the source give for `CCCn1c(N)c(N(CCOC)C(=O)C(C)Oc2ccc(F)cc2)c(=O)[nH]c1=O` (stereo not drawn) here?
**A.** inconclusive: 89.1 µM [inhibitor, partial curve, poor fit]

**Q.** How did the Potency turn out when `CCOc1nc(-c2ccncc2)nc2ccccc12` was run?
**A.** inconclusive: 28.2 µM [inhibitor, single point]

**Q.** For `O=C(O)CCC(=O)Nc1ccc(N2CCCCC2)c(C(=O)O)c1`, which Potency is on record?
**A.** inconclusive: 39.8 µM [inhibitor, single point]

**Q.** For `COc1ccc(NC(=O)CSc2n[nH]c(-c3ccccc3)n2)cc1Cl`, which Potency is on record?
**A.** inactive

**Q.** How did the Potency turn out when `CCOc1ccccc1C(=O)Nc1cc2c(cc1N1CCCCC1)n(C)c(=O)n2C` was run?
**A.** inconclusive: 11.2 µM [inhibitor, full curve, poor fit]

**Q.** With `Cc1ccc(NC(=O)CN(C)C(=O)C(C)OC(=O)c2ccccc2NCCO)cc1` (stereo not drawn) as the compound, how does the Potency read?
**A.** inconclusive: 89.1 µM [inhibitor, single point]

**Q.** For `Cc1ccc(-c2cc(C(=O)Nc3cc(C)on3)c3ccccc3n2)c(C)c1`, which Potency is on record?
**A.** inconclusive: 56.2 µM [inhibitor, partial curve, poor fit]

**Q.** For `CCOC(=O)C1=C(C)N=C2SC(C(=O)OC)=CC(=O)N2C1c1ccc(OC)cc1` (stereo not drawn), which Potency is on record?
**A.** inconclusive: 22.4 µM [inhibitor, single point]

**Q.** For `COc1cccc(NC(=O)CN(C)CC(=O)Nc2ccc(Cl)cc2[N+](=O)[O-])c1`, which Potency is on record?
**A.** active: 39.8 µM

**Q.** How did the Potency turn out when `CC(=O)c1ccc(-n2c(SCC(=O)c3c[nH]c4ccccc34)nc3ccccc3c2=O)cc1` was run?
**A.** inconclusive: 89.1 µM [inhibitor, single point]

**Q.** How did the Potency turn out when `CCC(O)c1nc2ccccc2n1CCOc1cc(C)cc(C)c1` (stereo not drawn) was run?
**A.** inconclusive: 7.08 µM [inhibitor, partial curve, poor fit]

**Q.** For `O=c1ccc2ccc(Oc3ccc([N+](=O)[O-])cc3[N+](=O)[O-])cc2o1`, which Potency is on record?
**A.** inconclusive: 89.1 µM [inhibitor, single point]

**Q.** How did the activity, negative = inhibition turn out when `O=c1c(-c2ccccc2)nc2cnc(N3CCNCC3)nc2n1Cc1ccc(F)cc1` was run?
**A.** inactive: -4.43% [at 12.7 µM]

**Q.** For `Cc1cccc(C(=O)c2ccccc2C(=O)O)c1`, which Potency is on record?
**A.** inactive

**Q.** `CCCCc1c(O)nc(SCC(=O)N2CCOCC2)n(-c2ccccc2C)c1=O` was tested. Which Potency did it give?
**A.** inconclusive: 39.8 µM [inhibitor, single point]

**Q.** How did the Potency turn out when `O=C(Nc1ccc(Cl)c(C(F)(F)F)c1)c1cc2nc(-c3ccc4c(c3)OCO4)cc(C(F)(F)F)n2n1` was run?
**A.** inactive

**Q.** For `COc1ccc(Oc2ncc3nc(-c4ccc(OC)cc4)c(=O)n(C)c3n2)cc1`, which activity, negative = inhibition is on record?
**A.** inactive: 11.2% [at 0.501 µM]

**Q.** With `Nc1ccc2oc3ccccc3c2c1` as the compound, how does the Potency read?
**A.** inconclusive: 17.8 µM [inhibitor, single point]

**Q.** How did the Potency turn out when `CNC(=O)c1cc(Cl)c(OC)c(OC)c1` was run?
**A.** active: 7.94 µM

**Q.** With `CN(C)S(=O)(=O)c1cccc(NC(=S)NN=C(Cc2ccccc2)Cc2ccccc2)c1` as the compound, how does the Potency read?
**A.** inconclusive: 25.1 µM [inhibitor, single point]

**Q.** For `COc1ccc(NC(=S)NCCC2=CCCCC2)cc1OC`, which Potency is on record?
**A.** inconclusive: 31.6 µM [inhibitor, partial curve, poor fit]

**Q.** `Cc1ccc(CN(C(=O)c2ccc([N+](=O)[O-])cc2)c2ccccn2)cc1` was tested. Which Potency did it give?
**A.** inconclusive: 8.91 µM [inhibitor, partial curve, poor fit]

**Q.** With `CC1(CN2CCC(n3c(=O)[nH]c4ccccc43)CC2)OCc2ccccc2-n2cccc21` (stereo not drawn) as the compound, how does the Potency read?
**A.** inconclusive: 28.2 µM [inhibitor, single point]

**Q.** Which Potency does the source give for `COc1ccc(OC)c(-n2cnc3cc(C(=O)NCCc4ccccc4)ccc32)c1` here?
**A.** inconclusive: 22.4 µM [inhibitor, partial curve, poor fit]

**Q.** `COc1ccc(-c2ccc(C(c3c(C)[nH][nH]c3=O)c3c(C)[nH][nH]c3=O)o2)c([N+](=O)[O-])c1` was tested. Which Potency did it give?
**A.** active: 3.98 µM

**Q.** `CCN(CC)S(=O)(=O)c1cccc(-c2n[nH]c(=S)n2C)c1` was tested. Which Potency did it give?
**A.** inconclusive: 31.6 µM [inhibitor, single point]

**Q.** `C=CCOc1ccc(C2C(C(=O)c3ccco3)=C(O)C(=O)N2CCCN(CC)CC)cc1` (stereo not drawn) was tested. Which Potency did it give?
**A.** inconclusive: 89.1 µM [inhibitor, single point]

**Q.** Which Potency does the source give for `O=C(Nc1cccnc1)c1ccc(-c2ccc(Cl)cc2)o1` here?
**A.** inconclusive: 10 µM [inhibitor, partial curve, poor fit]

**Q.** `CC(=O)O[C@]1(C(C)=O)CC[C@H]2[C@@H]3C=C(C)C4=CC(=O)CC[C@@H]4[C@H]3CC[C@@]21C` was tested. Which Potency did it give?
**A.** inconclusive: 28.2 µM [inhibitor, single point]

**Q.** `Cc1cccc(N=C(NO)c2nonc2N)c1` was tested. Which Potency did it give?
**A.** inactive

**Q.** For `COC(CN(C)C(=O)C1CCC(CNS(=O)(=O)c2ccccc2)CC1)OC` (stereo not drawn), which Potency is on record?
**A.** inactive

**Q.** With `CC1=C(C(=O)Nc2ccc(C)cc2C)C(c2ccc[nH]2)n2ncnc2N1` (stereo not drawn) as the compound, how does the Potency read?
**A.** inactive

**Q.** How did the Potency turn out when `CC(C)OC(=O)c1c(NC(=O)c2cc3nc(-c4ccccc4)cc(C(F)(F)F)n3n2)sc2c1CCCC2` was run?
**A.** active: 12.6 µM

**Q.** For `CCCN(CC(=O)Nc1ccccc1OC)C(=O)Cc1ccc2c(c1)CCC2`, which Potency is on record?
**A.** inconclusive: 7.08 µM [inhibitor, single point]

**Q.** With `Cc1c2cccn2cc[n+]1C` as the compound, how does the Potency read?
**A.** active: 14.1 µM

**Q.** With `COc1ccc(C)cc1NC(=O)c1nnn(Cc2cc(C)ccc2C)c1N` as the compound, how does the Potency read?
**A.** inconclusive: 79.4 µM [inhibitor, partial curve, poor fit]

**Q.** `[O-]/[N+](=C\c1cccc(Br)c1)c1ccccc1` was tested. Which Potency did it give?
**A.** active: 39.8 µM

**Q.** For `C/C=C/c1ccc(OCCCn2cncn2)c(OC)c1`, which Potency is on record?
**A.** active: 2.82 µM

**Q.** How did the Potency turn out when `Cc1ccc(-n2c(SCc3cc(=O)n4ccsc4n3)nnc2-c2cccnc2)c(C)c1` was run?
**A.** inconclusive: 89.1 µM [inhibitor, single point]

**Q.** With `C=CCc1cc(OC)ccc1OCC(O)CN1CCN(c2ccc(OC)cc2)CC1` (stereo not drawn) as the compound, how does the Potency read?
**A.** active: 28.2 µM

**Q.** Which Potency does the source give for `CC(=O)n1cc([C@@H]2C=C(C(=O)N3CCN(Cc4ccc5c(c4)OCO5)CC3)O[C@H](OCCCCO)C2)c2ccccc21` here?
**A.** inactive

**Q.** Which Potency does the source give for `COc1cc2c(cc1OC)CN(C(=O)CCNC(=O)c1ccc(Br)cc1)CC2` here?
**A.** inconclusive: 89.1 µM [inhibitor, partial curve, poor fit]

**Q.** With `CCOC(=O)/C(C#N)=C(/C)c1ccc(OC)cc1` as the compound, how does the Potency read?
**A.** inconclusive: 50.1 µM [inhibitor, partial curve]

**Q.** Which activity, negative = inhibition does the source give for `COCCn1c(=O)c(-c2cccs2)nc2cnc(Oc3ccccc3)nc21` here?
**A.** inactive: -4.66% [at 0.501 µM]

**Q.** Which Potency does the source give for `CCN(CC)S(=O)(=O)c1ccc(N2CCN(C)CC2)c(NC(=O)CSCC(=O)Nc2cccc(C)c2)c1` here?
**A.** inconclusive: 35.5 µM [inhibitor, partial curve]

**Q.** Which Potency does the source give for `O=C(Cn1ncc2c3ccccc3n(Cc3ccc(Cl)cc3)c2c1=O)NC1CCCCCC1` here?
**A.** inactive

**Q.** How did the Potency turn out when `COc1ccc(C2/C(=C(\O)c3ccc4c(c3)CC(C)O4)C(=O)C(=O)N2Cc2cccnc2)c(OC)c1` (stereo not drawn) was run?
**A.** active: 70.8 µM

**Q.** With `COc1cc(OC)cc(C(=O)N(Cc2cc3cc(C)ccc3[nH]c2=O)C(C)C)c1` as the compound, how does the Potency read?
**A.** inconclusive: 89.1 µM [inhibitor, single point]

**Q.** `COc1cc(-c2nnc(SCC(=O)Nc3cccc(C#N)c3)o2)cc(OC)c1OC` was tested. Which Potency did it give?
**A.** inconclusive: 35.5 µM [inhibitor, partial curve, poor fit]

**Q.** `Cc1ccc(S(=O)(=O)N2CCN(C(=O)c3ccc(Br)o3)CC2)c(C)c1` was tested. Which Potency did it give?
**A.** active: 79.4 µM

**Q.** How did the Potency turn out when `COC(=O)Cn1c(CN2CCOCC2)nc2c1c(=O)n(C)c(=O)n2C` was run?
**A.** inconclusive: 89.1 µM [inhibitor, single point]

**Q.** For `Cc1cccc(N/N=C2/COC(C)(C)CC2=O)c1`, which Potency is on record?
**A.** active: 79.4 µM

**Q.** How did the Potency turn out when `Cc1ccc(NC(=S)NNC(=O)CSc2nnc(-c3ccc(Cl)cc3)n2C2CCCCC2)cc1` was run?
**A.** inactive

**Q.** How did the Potency turn out when `CC(=O)N/C(=C\c1ccccc1)C(=O)N1CCOCC1` was run?
**A.** inactive

**Q.** `Cc1ccc(Cl)cc1N1CCN(S(=O)(=O)c2ccc3c(c2)CC(=O)N3C)CC1` was tested. Which Potency did it give?
**A.** inactive

**Q.** With `CCCCC(CC)Cn1c(Oc2ccccc2)nc2c1c(=O)n(C)c(=O)n2C` (stereo not drawn) as the compound, how does the activity, negative = inhibition read?
**A.** inconclusive: -59% [inhibitor]

**Q.** How did the Potency turn out when `COc1ccc(/C=N/NC(=O)c2cc(O)c(O)c(O)c2)cc1Cn1cc([N+](=O)[O-])cn1` was run?
**A.** active: 14.1 µM

**Q.** For `CC(C)c1cnc2c(c1SCC(=O)Nc1cccc([N+](=O)[O-])c1)c(=O)n(C)c(=O)n2C`, which Potency is on record?
**A.** inconclusive: 39.8 µM [inhibitor, single point]

**Q.** How did the Potency turn out when `COCCCNc1ncnc2c1nnn2C` was run?
**A.** inactive

From PubChem BioAssay AID504332 (National Center for Advancing Translational Sciences (NCATS), 2011)
